About 14,000 (4.5%) of roughly 310,000 compounds showed an effect of 50% or more. The effect is printed as a negative number. Some of the results follow.
target: human ether-à-go-go-related gene (hERG) potassium channel (human, UniProt Q12809); test: primary screen, population patch clamp on CHO cells stably expressing hERG
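Further: peak tail current of the secondary pulse compared with the same well before compound.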

Sequence of human ether-à-go-go-related gene (hERG) potassium channel (Q12809 whole entry, looked up): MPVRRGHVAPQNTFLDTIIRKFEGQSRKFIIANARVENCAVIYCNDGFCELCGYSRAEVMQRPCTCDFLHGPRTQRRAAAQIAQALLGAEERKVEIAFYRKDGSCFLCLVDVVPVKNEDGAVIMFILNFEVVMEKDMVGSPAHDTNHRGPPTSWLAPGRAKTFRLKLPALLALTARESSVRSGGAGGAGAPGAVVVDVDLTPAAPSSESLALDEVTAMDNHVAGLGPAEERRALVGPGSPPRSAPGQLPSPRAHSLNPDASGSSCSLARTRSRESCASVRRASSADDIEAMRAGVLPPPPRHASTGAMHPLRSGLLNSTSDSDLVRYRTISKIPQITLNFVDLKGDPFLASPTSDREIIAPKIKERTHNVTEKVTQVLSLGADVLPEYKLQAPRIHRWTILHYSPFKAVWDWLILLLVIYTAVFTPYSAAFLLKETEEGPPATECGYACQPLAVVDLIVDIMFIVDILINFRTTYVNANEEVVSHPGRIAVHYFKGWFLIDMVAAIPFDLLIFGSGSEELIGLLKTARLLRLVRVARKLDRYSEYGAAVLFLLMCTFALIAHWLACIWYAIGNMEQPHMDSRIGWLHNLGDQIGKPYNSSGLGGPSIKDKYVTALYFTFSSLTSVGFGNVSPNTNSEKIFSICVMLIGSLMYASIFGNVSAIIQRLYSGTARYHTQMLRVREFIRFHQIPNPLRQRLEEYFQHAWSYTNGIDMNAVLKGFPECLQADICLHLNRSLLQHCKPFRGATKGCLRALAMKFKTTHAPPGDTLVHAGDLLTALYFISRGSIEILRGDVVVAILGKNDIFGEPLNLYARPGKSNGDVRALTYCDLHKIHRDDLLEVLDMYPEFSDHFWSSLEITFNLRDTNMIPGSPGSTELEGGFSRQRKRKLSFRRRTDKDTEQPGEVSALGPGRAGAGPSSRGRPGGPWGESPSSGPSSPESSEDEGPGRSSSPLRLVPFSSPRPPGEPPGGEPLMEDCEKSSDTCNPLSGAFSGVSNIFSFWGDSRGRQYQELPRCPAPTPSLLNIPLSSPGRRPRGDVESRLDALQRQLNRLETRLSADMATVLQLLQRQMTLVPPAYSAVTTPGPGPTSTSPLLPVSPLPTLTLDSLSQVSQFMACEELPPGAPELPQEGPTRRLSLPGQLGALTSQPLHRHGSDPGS

Row | SMILES | hERG current change (%, negative = inhibition) at 10uM [%]
1 | C=CCn1c(=NC(=O)c2ccc(S(=O)(=O)N3CCc4ccccc4C3)cc2)sc2cc(S(N)(=O)=O)ccc21 | -0.289
2 | COc1cccc(NC(=O)c2ccccc2)c1 | 3.52
3 | CCOC(=O)C(=CNc1cc(OC)ccc1-n1cccc1)C(=O)OCC | -21.6
4 | Cc1c(C(=O)O)oc2c1ccc1ccccc12 | 24.6
5 | CN(C)CCCN(C(=O)COc1ccc(Cl)cc1)c1nc2cc3c(cc2s1)OCO3.Cl | -59.7
6 | Nn1cnnc1SCC(=O)Nc1ccc2c(c1)OCCO2 | 1.69
7 | COc1ccc(N2CCN(C(=O)c3cc(-c4cccs4)nc4ccccc34)CC2)cc1 | 25.7
8 | O=C(NC(=S)N(Cc1ccccc1)c1ccccn1)C1CC1 | 4.18
9 | Cc1ccc(S(=O)(=O)Nc2ccc(-c3csc(-c4ccccc4)n3)cc2)cc1 | -2.79
10 | CC(=O)c1ccc(OCc2cc(C(=O)NCCN3CCCC(O)C3)no2)cc1 (stereo not shown) | 8.26
11 | C[C@H](NC(=O)c1ncn(Cc2ccccc2)c1C(=O)N[C@@H](C)c1ccccc1)c1ccccc1 | -2.7
12 | CCCCCCCC(=O)NC(Nc1ccccc1OC)C(Cl)(Cl)Cl (stereo not shown) | 18.2
13 | O=C(CSCCc1ccccn1)Nc1cccnc1Cl | -4.44
14 | O=CNCCc1nc2ccccc2n1CCc1ccccc1 | 15.1
15 | Cc1ccccc1N1CCN(S(=O)(=O)c2nnc(NC(=O)c3ccc(F)cc3)s2)CC1 | 17.2
16 | CN(C)S(=O)(=O)c1cccc(NC(=S)NCc2ccc3c(c2)OCO3)c1 | -19.5
17 | COc1ccc(C(=O)N(Cc2ccccc2)c2ccc(C)cc2)cc1S(=O)(=O)N1CCOCC1 | -67.7
18 | O=C1CC(Cc2ccccc2)C(=O)N1c1ccccn1 (stereo not shown) | 19
19 | COc1ccc(-c2nnc3n2CCCCC3)cc1 | 19.9
20 | COc1ccc(-c2nc3nc(C)c(Cc4ccccc4)c(=O)n3[nH]2)cc1 | -14.1
21 | CCn1c(=N)c(S(=O)(=O)c2ccc(C)cc2)cc2c(=O)n3ccccc3nc21 | -5.3
22 | Cc1ccc(S(=O)(=O)N2CCCC2c2cccnc2)cc1 (stereo not shown) | -13.4
23 | COC(=O)c1cccc(C23CC4(C2)[C@H](CN(C)[C@@H]4c2ccccc2)C3c2ccc(C(F)(F)F)cc2)c1 (stereo partly shown) | 14.5
24 | Cc1ccccc1NS(=O)(=O)c1ccc(OCC(=O)NCc2cccnc2)cc1 | -32.8
25 | CSc1nsc(SCC(=O)Nc2ccc(NC(C)=O)cc2)n1 | 8.9
26 | O=C(N/N=C\c1cccc(Cl)c1)c1n[nH]c2c1CCCC2 | 8.51
27 | O=C(CCS(=O)(=O)Cc1ccccc1)N1CCN(c2ccc([N+](=O)[O-])cc2)CC1 | -81.6
28 | O=C(O)c1c2c(nc3ccc(S(=O)(=O)N4CCC(C(=O)NC5CCCC5)CC4)cc13)CCCCC2 | 9.65

Row | SMILES | hERG current change (%, negative = inhibition) at 10uM [%]
29 | O=C(COC(=O)c1cccc(NC(=O)c2ccco2)c1)c1ccc(Br)cc1 | -1.83
30 | O=C(C1CCC(CNS(=O)(=O)c2ccc(F)cc2)CC1)N1CCOCC1 (stereo not shown) | 9.16
31 | COc1cccc(N2CCN(C(=O)c3ccc(=O)oc3)CC2C)c1 (stereo not shown) | -59.7
32 | Cc1ccc(-c2csc(N3CCC(C(N)=O)(N4CCCCC4)CC3)n2)cc1 | 3.99
33 | O=C(COc1cccnc1[N+](=O)[O-])c1c[nH]c2ccccc12 | 13.9
34 | CCc1ccc2[nH]cc(C(=O)N3CCCCCC3)c(=O)c2c1 | -4.9
35 | Cc1cc(O)cc(O)c1C(=O)Cc1cscn1 | 10.3
36 | COc1ccc(N(CC(=O)NC(C)(C)C)S(=O)(=O)c2ccccc2)cc1OC | -5.98
37 | O=C(Nc1cccc(Cl)c1)c1cccnn1 | 12.9
38 | COc1ccc(S(=O)(=O)NC(C)C(=O)NCCN2CCOCC2)cc1Cl (stereo not shown) | 6.96
39 | CC(C)(C)n1nnnc1C(c1cccnc1)N1CCN(C2CCCCC2)CC1 (stereo not shown) | -2.19
40 | Cc1ccc(NC(=O)CN2CCc3ccccc3C2)cc1S(=O)(=O)N1CCOCC1 | -15.3
41 | COc1ccc(C(CNC(=O)c2cccc(S(=O)(=O)N3CCOCC3)c2)N2CCCC2)cc1 (stereo not shown) | -16.3
42 | CCN(CC)S(=O)(=O)c1cccc(C(=O)OC2CC(C)OC2=O)c1 (stereo not shown) | 12.7
43 | CCCn1nc(C(=O)Nc2ccc(S(=O)(=O)Nc3nccs3)cc2)c2ccccc2c1=O | 9.6
44 | O=C(Nc1nccs1)NC1CCCCC1 | -19.4
45 | Fc1ccccc1NC(=S)N1CCCCC1 | -1.26
46 | Cc1cc(C)nc(NC(=O)NS(=O)(=O)Nc2ccc(Br)cn2)n1 | 17.9
47 | Cc1ccc2nc(N3CCN(C(=O)c4ccc(F)cc4)CC3)c(C#N)cc2c1 | -73.6
48 | COc1ccccc1/C=C(/C(=O)OCC(=O)Nc1cc(C)ccc1C)c1ccccc1 | 21.1
49 | COc1ccc(-n2nc(C(=O)NCC(=O)NCCc3ccc(OC)c(OC)c3)c3ccccc3c2=O)cc1Cl | 2.97
50 | Cn1c(=O)c2c(nc(N3CCNCC3)n2Cc2ccccc2Cl)n(C)c1=O | 12.3
51 | CCOC(=O)CSc1n[nH]c(-c2ccco2)n1 | 12.5
52 | COc1ccc(NC(=O)CCn2c(=O)c3cccn3c3ccccc32)cc1 | -1.02
53 | COCCNC(=O)C(=O)NCC1OCCCN1S(=O)(=O)c1cccs1 (stereo not shown) | -0.83
54 | Cc1cccn2c(CN(C)C3CCOC3)c(C(=O)N3CCCCC3)nc12 (stereo not shown) | 32.3
55 | Cc1ccccc1CNC(=O)C(=O)NCCC1CCCCN1S(=O)(=O)c1cccs1 (stereo not shown) | -12.8

Reference: publication PMC4336329 (PLoS ONE, 2015)
